A lower IC50 marks a more sensitive line; fits outside the tested doses are given as limits. AUC, from the same fit, is the share of area under the viability curve across the 256-fold dose range; the more sensitive the line, the further below 1. For some assays here: A top dose marked as inferred was derived from the fitted curves, not read from the paper. For some assays here: Where an entry number is given, a second screen of the drug exists; the two often differ.
What was measured:
Experiment in all cases: Viability of human cancer cell lines after 72 h of drug (GDSC screen)
PHA-793887 = compound: CC(C)CC(=O)Nc1n[nH]c2c1CN(C(=O)C1CCN(C)CC1)C2(C)C [PHA-793887]; details: top dose 10.24 µM
Description: (§1)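 Human cancer cell lines in 384-well plates, medium with 10% serum, drug for 72 h over a 256-fold dose range (nine 2-fold or five 4-fold steps up to the top dose). Adherent lines were fixed and stained with the nucleic acid dye Syto60, suspension lines read with resazurin; signal relative to control wells, capped at 0 and 100%. One two-parameter sigmoid per drug and line, fitted in a mixed model over all curves with the slope shared within a line.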

Epothilone B = compound: C/C(=C\c1csc(C)n1)[C@@H]1C[C@@H]2O[C@]2(C)CCC[C@H](C)[C@H](O)[C@@H](C)C(=O)C(C)(C)[C@@H](O)CC(=O)O1 [Epothilone B]; details: top dose 0.032 µM; top dose inferred
Description: as §1

TPCA-1 = compound: NC(=O)Nc1sc(-c2ccc(F)cc2)cc1C(N)=O [TPCA-1]; details: top dose 20 µM
Description: as §1

PLX4720 = compound: CCCS(=O)(=O)Nc1ccc(F)c(C(=O)c2c[nH]c3ncc(Cl)cc23)c1F [PLX4720]; details: top dose 10 µM
Description: as §1

Y-39983 = compound: C[C@@H](N)c1ccc(C(=O)Nc2ccnc3[nH]ccc23)cc1 [Y-39983]; details: top dose 20 µM; top dose inferred
Description: as §1

[1] = screen: GDSC drug entry 1371, top dose inferred

Row | Cell Line | AUC (PHA-793887) | IC50 (PHA-793887) [µM] | AUC (Epothilone B) | IC50 (Epothilone B) [µM] | AUC (TPCA-1) | IC50 (TPCA-1) [µM] | AUC (PLX4720; screen: GDSC drug entry 1036) | IC50 (PLX4720; screen: GDSC drug entry 1036) [µM] | AUC (PLX4720; [1]) | IC50 (PLX4720; [1]) [µM] | AUC (Y-39983) | IC50 (Y-39983) [µM]
1 | MDA-MB-468 (breast, adherent) | 0.576 | 1.03 | 0.497 | 0.00196 | 0.876 | 18.7 | 0.988 | > 10 | 0.987 | > 10 | 0.972 | > 20
2 | ME-180 (cervix, adherent) | 0.661 | 1.83 | 0.706 | 0.00787 | 0.666 | 3.7 | 0.964 | > 10 | 0.977 | > 10 | 0.972 | > 20
3 | MEL-JUSO (melanoma, adherent) | 0.866 | > 10.2 | 0.373 | 0.000855 | 0.723 | 5.83 | 0.965 | > 10 | 0.976 | > 10 | 0.919 | > 20
4 | MES-SA (uterus, adherent) | 0.942 | > 10.2 | 0.536 | 0.00247 | 0.992 | > 20 | 0.992 | > 10 | 0.99 | > 10 | 0.992 | > 20
5 | MFE-280 (endometrium, adherent) | 0.885 | > 10.2 | 0.89 | > 0.032 | 0.782 | 10.8 | 0.975 | > 10 | 0.98 | > 10 | 0.982 | > 20
6 | MFE-296 (endometrium, adherent) | 0.925 | > 10.2 | 0.587 | 0.00352 | 0.932 | > 20 | 0.982 | > 10 | 0.981 | > 10 | 0.983 | > 20
7 | MFE-319 (endometrium, adherent) | 0.96 | > 10.2 | 0.35 | 0.00078 | 0.98 | > 20 | 0.922 | > 10 | 0.987 | > 10 | 0.989 | > 20
8 | MG-63 (osteosarcoma, adherent) | 0.982 | > 10.2 | 0.244 | 0.00032 | 0.983 | > 20 | 0.984 | > 10 |  |  | 0.982 | > 20
9 | MHH-ES-1 (Ewing sarcoma, adherent) | 0.517 | 0.712 | 0.391 | 0.00101 | 0.641 | 3.05 | 0.979 | > 10 | 0.976 | > 10 | 0.91 | > 20
10 | MIA-PaCa-2 (pancreas, adherent) | 0.982 | > 10.2 | 0.422 | 0.0012 | 0.982 | > 20 | 0.871 | > 10 | 0.969 | > 10 | 0.985 | > 20
11 | MKN1 (stomach, adherent) | 0.864 | 9.71 | 0.56 | 0.00294 | 0.932 | > 20 | 0.965 | > 10 | 0.982 | > 10 | 0.946 | > 20
12 | MKN28 (stomach, adherent) | 0.908 | > 10.2 | 0.337 | 0.000698 | 0.895 | > 20 | 0.98 | > 10 |  |  | 0.95 | > 20
13 | MKN45 (stomach, adherent) | 0.864 | > 10.2 | 0.585 | 0.00365 | 0.964 | > 20 |  |  | 0.924 | > 10 | 0.983 | > 20
14 | ML-1 (thyroid, adherent) | 0.984 | > 10.2 | 0.397 | 0.000992 | 0.816 | 13.5 |  |  | 0.944 | > 10 | 0.981 | > 20
15 | MOG-G-CCM (glioma, adherent) | 0.859 | > 10.2 | 0.646 | 0.00545 | 0.806 | 12.2 | 0.97 | > 10 | 0.981 | > 10 | 0.772 | 9.01
16 | MOG-G-UVW (glioma, adherent) | 0.939 | > 10.2 | 0.483 | 0.0018 | 0.906 | > 20 | 0.817 | 5.39 | 0.934 | > 10 | 0.97 | > 20
17 | MS751 (cervix, adherent) | 0.882 | 9.4 | 0.645 | 0.00487 | 0.962 | > 20 | 0.987 | > 10 | 0.989 | > 10 | 0.98 | > 20
18 | Mewo (melanoma, adherent) | 0.98 | > 10.2 | 0.97 | > 0.032 | 0.981 | > 20 |  |  | 0.982 | > 10 | 0.972 | > 20
19 | NCI-H28 (mesothelioma, adherent) | 0.968 | > 10.2 | 0.782 | 0.018 | 0.909 | > 20 | 0.933 | > 10 | 0.977 | > 10 | 0.955 | > 20
20 | NCI-H196 (small cell lung carcinoma, adherent) | 0.965 | > 10.2 | 0.933 | > 0.032 | 0.927 | > 20 |  |  | 0.987 | > 10 | 0.969 | > 20
21 | NCI-H292 (lung adenocarcinoma, adherent) | 0.948 | > 10.2 | 0.481 | 0.00176 | 0.597 | 2.44 |  |  | 0.974 | > 10 | 0.91 | > 20
22 | NCI-H358 (lung adenocarcinoma, adherent) | 0.543 | 0.848 | 0.553 | 0.00284 | 0.635 | 3.08 | 0.887 | > 10 | 0.932 | > 10 | 0.929 | > 20
23 | NCI-H441 (lung adenocarcinoma, adherent) | 0.977 | > 10.2 | 0.544 | 0.00276 | 0.81 | 16.4 |  |  | 0.901 | > 10 | 0.974 | > 20

From the supplement of paper PMC4967469
